Assay results: PubChem BioAssay AID504832 (National Center for Advancing Translational Sciences (NCATS), 2011)
Hit rate of the full screen: of about 310,000 compounds, about 18,000 (5.8%) were called active. Inconclusive means that the source gave no clear call. Such entries were picked first, then a sample of the others. Calls come from the whole dose curve; as a rule, active = well fitted inhibition curve with a large enough effect; inconclusive = small, poorly fitted or top-dose-only effect, or another doubt; inactive = no such curve, though single readings can be large or run the other way. Potencies of inconclusive entries are left out as doubtful fits.

Assay: Primary qHTS for delayed death inhibitors of the malarial parasite plastid, 48 hour incubation
Settings: P. falciparum luciferase growth in erythrocytes; series mostly up to 28.7 µM
Procedure, shortened: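 Cell-based growth assay: transgenic P. falciparum expressing firefly luciferase, cultured in red cells within RPMI 1640 containing 0.5% w/v Albumax, 24 mM bicarbonate and gentamycin. A drop in luciferase activity indicates inhibition.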
Potency is the fitted concentration of half-maximal effect; tags give direction and shape of the fitted curve.

Row | SMILES | Potency
1 | COc1ccc(CNc2ccc(Br)cc2)cc1 | inactive
2 | N#CC1=C(N)NC(SCc2ccc(F)cc2)=C(C#N)C12CCCCC2 | inconclusive [inhibitor, single point]
3 | C/C(=N/Nc1nc(-c2ccccc2)cc(-c2ccc(F)cc2)n1)c1cccc(N)c1 | inconclusive [inhibitor, single point]
4 | Cc1cccc(Oc2cnn(C(C)(C)C)c(=O)c2Cl)c1 | inconclusive [inhibitor, partial curve, poor fit]
5 | CC(C)OP(=O)(c1ccc(N(C)C)cc1)C(O)c1ccc(C(C)C)cc1 (stereo unspecified) | inconclusive [inhibitor, single point]
6 | CCC(CC)NC(=O)c1nn(Cc2ccccc2)c(=O)c2ccccc12 | inconclusive [inhibitor, partial curve, poor fit]
7 | Cc1cccc(NC(=O)CN(C)S(=O)(=O)c2ccc(-c3ccc(=O)[nH]n3)s2)c1C | inconclusive [inhibitor, partial curve]
8 | Cn1nnc(-c2ccc(OCc3ccccc3F)cc2)n1 | inactive
9 | COc1ccc(CCNC(=O)C2CC(=O)N(c3ccc(C(C)(C)C)cc3)C2)cc1OC (stereo unspecified) | inconclusive [inhibitor, partial curve, poor fit]
10 | Cc1cc(C)cc(N2C(N)=NC(N)=NC2c2cccc(Cl)c2)c1 (stereo unspecified) | active: 1.17 µM
11 | Cc1ccc(NC(=O)CCC(=O)N/N=C/c2cc([N+](=O)[O-])ccc2O)cc1 | inconclusive [inhibitor, single point]
12 | O=C(NCc1cccs1)C(=O)NCC(c1ccco1)N1CCN(c2ccc(F)cc2)CC1 (stereo unspecified) | inconclusive [inhibitor, partial curve]
13 | C[n+]1ccccc1/C=C/c1ccc(F)c(F)c1 | inconclusive [inhibitor, full curve]
14 | COc1ccc(C2C(C(=O)c3cccs3)=C(O)C(=O)N2Cc2cccnc2)cc1OC (stereo unspecified) | inactive
15 | CCN(CC)CCNCc1cc(Br)ccc1OCC(=O)NCc1ccccc1 | inconclusive [inhibitor, single point]
16 | O=C(c1ccc(Cl)s1)N1CCN(c2ccccc2)CC1 | inactive
17 | COC(=O)C1=C(C(=O)OC)[C@@H]2N(C)c3ccc(OC)cc3[C@@]23C[C@@H](C(=O)OC)N(C(=O)C2CCC2)C3=N1 | inconclusive [inhibitor, partial curve, poor fit]
18 | O=C(NCCc1c[nH]c2ccccc12)/C(=C\c1cccnc1)NC(=O)c1ccccc1Br | inconclusive [inhibitor, partial curve, poor fit]
19 | CCOC(=O)CN1C(=O)S/C(=C/c2ccco2)C1=O | inactive
20 | COc1cc(C(=O)Oc2cc(C)cc(C)c2)cc(OC)c1OC | active: 14.7 µM
21 | COCc1nnc(NC(=O)c2sc3ccccc3c2Cl)s1 | inactive
22 | O=C(CN1C(=O)NC2(CCc3ccccc3C2)C1=O)Nc1ccc(Cl)cc1F (stereo unspecified) | inactive

Row | SMILES | Potency
23 | COc1ccc(NC(=S)NCCC(c2ccccc2)c2ccccc2)c(OC)c1 | inconclusive [inhibitor, single point]
24 | CC(C)On1c(SC(C)C)nc2ccccc2c1=O | inconclusive [inhibitor, single point]
25 | CC(C)CCNC(=O)c1ccc(Cl)c(NC(=O)c2ccccc2F)c1 | inconclusive [inhibitor, single point]
26 | N[C@@H](Cc1cc(I)c(Oc2cc(I)c(O)c(I)c2)c(I)c1)C(=O)O | inactive
27 | CCCC(=O)NC(=S)Nc1ccc(S(=O)(=O)Nc2ccc(OCC)cc2)cc1 | inconclusive [inhibitor, single point]
28 | O=C(COC(=O)Cc1ccccc1)Nc1ccc(SC(F)F)cc1 | inactive
29 | COc1ccc(CNC(=O)c2c(C)nc3ccccn23)cc1 | inactive
30 | C=Cc1c(C)c2cc3nc(cc4[nH]c(cc5nc(cc1[nH]2)C(C)=C5CCC(=O)O)c(CCC(=O)OC)c4C)[C@@]1(C)C3=CC=C(C(=O)OC)[C@H]1C(=O)OC (tested in a mixture with another compound) | active: 3.79 µM
31 | COc1ccccc1Nc1nc(N)nc(CN2CCc3ccccc3C2)n1 | inconclusive [inhibitor, single point]
32 | N#CC(C#N)=C1NC2(CCCC2)Cc2ccccc21 | inconclusive [inhibitor, full curve]
33 | COc1cc2c(C(=O)N3CCN(C)CC3)c(CSc3ccccc3)n(C)c2cc1Br | inconclusive [inhibitor, single point]
34 | CC1CCN(C(=O)c2ccc(NC3=C(Cl)C(=O)N(Cc4ccccc4)C3=O)cc2)CC1 | inconclusive [inhibitor, single point]
35 | Cc1ccc(C(NC(=O)c2ccccc2)C(Cl)(Cl)Cl)cc1 (stereo unspecified) | active: 11.7 µM
36 | O=c1[nH]cnc2c1c(-c1ccccc1)cn2-c1ccc(F)cc1 | inconclusive [inhibitor, partial curve, poor fit]
37 | O=C(Nc1ccc(Br)cc1)C1OCCc2ccccc21 (stereo unspecified) | inconclusive [inhibitor, single point]
38 | CS(=O)c1ccccc1-c1nc(-c2cc(C(F)(F)F)cc(C(F)(F)F)c2)no1 (stereo unspecified) | inconclusive [inhibitor, partial curve, poor fit]
39 | CCS(=O)(=O)c1nc(S(=O)(=O)c2ccc(C)cc2)c(NCCCN2CCCC2=O)s1 | inconclusive [inhibitor, single point]
40 | Cc1nnc(NC(=O)c2ccc(S(=O)(=O)N(C)Cc3ccccc3)cc2)o1 | inconclusive [inhibitor, single point]
41 | Cc1cnc(C(=O)OCc2ccc(Br)cc2)cn1 | inactive
42 | Cn1c(O)c(N=NC(=S)Nc2ccccc2F)c2cc(S(=O)(=O)N3CCOCC3)ccc21 | inconclusive [inhibitor, full curve]
43 | Cc1ccc(NC(=O)NC2CCCN2S(=O)(=O)c2ccc(Cl)cc2)cc1 (stereo unspecified) | inactive
44 | Cc1ccc(CNC(=O)Cn2c(=O)c3sccc3n(Cc3cccc([N+](=O)[O-])c3)c2=O)cc1 | inconclusive [inhibitor, partial curve, poor fit]

Row | SMILES | Potency
45 | CC(C)CC(=O)Nc1nc(-c2ccc(S(=O)(=O)N3CCOCC3)cc2)cs1 | inconclusive [inhibitor, single point]
46 | Cn1c(=O)c2nc(Cl)c(-c3ccccc3)nc2n(C)c1=O | active: 4.15 µM
47 | COc1ccc(C(CNC(=O)c2ccc(-c3ccccc3)cc2)N(C)C)cc1OC (stereo unspecified) | inconclusive [inhibitor, partial curve]
48 | Cc1ccc2nc(-c3ccncc3)cc(C(=O)NCc3ccccc3F)c2c1 | inconclusive [inhibitor, single point]
49 | CC1CCCC(C)N1C(=O)CN1CCN(c2nc(-c3ccc(F)cc3)cs2)CC1 (stereo unspecified) | active: 11.7 µM
50 | CCN(CC)S(=O)(=O)c1ccc(C)c(NC(=O)Cc2ccc(S(=O)(=O)N3CCOCC3)s2)c1 | inconclusive [inhibitor, partial curve]
51 | Cc1ccccc1C(=O)NC(=S)NCCC1=CCCCC1 | inconclusive [inhibitor, single point]
52 | CC(C)Oc1ccc(C2CC(=O)N(c3cccc(Br)c3)C2=O)cc1 (stereo unspecified) | inactive
53 | COc1ccc(CN(C)CC(=O)NC2CCCc3ccccc32)cc1OC (stereo unspecified) | inactive
54 | C=CCn1c(SCc2ccc3nonc3c2)nnc1-c1cccs1 | inconclusive [inhibitor, partial curve]
55 | C(=N\Nc1nc2ccccc2[nH]1)/c1c[nH]c2ccccc12 | active: 0.657 µM
56 | Cc1ccc(C(=O)Nc2ccc3cn[nH]c3c2)cc1S(=O)(=O)N1CCOCC1 | inconclusive [inhibitor, single point]
57 | Cc1ccc(C)c(N2CCN(C(=O)C3CCN(S(=O)(=O)c4c(C)noc4C)CC3)CC2)c1 | inconclusive [inhibitor, single point]
58 | CCOC(=O)N1CCN(Cc2ccc(O)c3ncccc23)CC1 | inconclusive [inhibitor, single point]
59 | O=c1[nH]c(C2CCN(S(=O)(=O)c3ccc(F)cc3)CC2)nc2c1nnn2Cc1ccc2c(c1)OCCO2 | inconclusive [inhibitor, single point]
60 | O=C(Nc1cccnc1)c1ccc(Cl)c(S(=O)(=O)N2CCCCCC2)c1 | active: 10.4 µM
61 | COc1ccc([C@H]2CC(=O)C=C(c3cccc(OC(F)(F)F)c3)C2)cc1 | inconclusive [inhibitor, partial curve, poor fit]
62 | COc1ccccc1N1CCN(C(=O)C2CCC(Cn3c(=S)[nH]c4ccccc4c3=O)CC2)CC1 (stereo unspecified) | active: 10.4 µM
63 | CC(=O)c1ccc(NC(=O)C(C)Sc2nnnn2C)cc1 (stereo unspecified) | inconclusive [inhibitor, partial curve, poor fit]
64 | COc1ccnc(Oc2ccc(F)cc2)c1C(=O)N/C=N/OCc1ccc(Cl)cc1Cl | inconclusive [inhibitor, partial curve, poor fit]
65 | Cc1ccc(C(=O)N(CCC2=CCCCC2)c2c(N)n(Cc3ccccc3)c(=O)[nH]c2=O)o1 | inconclusive [inhibitor, single point]
66 | COc1cc(-c2nnc(NC(=O)CS(=O)(=O)c3ccc(F)cc3)o2)cc(OC)c1OC | inconclusive [inhibitor, single point]
